According to the supplement of paper PMC3334620:
The full ranking holds about 33,000 sequences; the median of “E-score (-0.5 to 0.5)” is about -0.017, and the highest 2% start at about 0.3. Some of the results follow.

molecular target: T1, Sut1 (UniProt P53032); assay: PBM E-score (8-mer binding enrichment) (E-score (-0.5 to 0.5)); higher = stronger / more preferred TF binding; most listed sequences are background and not binding sites; conditions: protein concentration: 200 nM; construct: GST-full length
T1 sequence: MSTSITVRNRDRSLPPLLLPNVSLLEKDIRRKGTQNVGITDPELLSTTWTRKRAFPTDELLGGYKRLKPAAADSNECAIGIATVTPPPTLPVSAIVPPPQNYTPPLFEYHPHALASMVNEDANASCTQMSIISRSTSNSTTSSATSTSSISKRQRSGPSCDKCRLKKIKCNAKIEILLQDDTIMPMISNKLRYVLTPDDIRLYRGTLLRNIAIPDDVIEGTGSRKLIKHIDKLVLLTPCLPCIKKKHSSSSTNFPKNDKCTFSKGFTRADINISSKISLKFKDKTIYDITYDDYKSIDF
How it was run: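 PURExpress in vitro transcription/translation supplied GST-tagged yeast transcription factors, either full-length or DNA-binding domain. Applied at about 100-200 nM to universal all-10-mer Agilent arrays double-stranded by primer extension, the bound protein was detected with fluorescent anti-GST. E-scores, modified Wilcoxon-Mann-Whitney statistics, were given by the Universal PBM Analysis Suite to ungapped eight-base words pooled with their reverse complements after masliner normalisation.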

| Sequence | PBM E-score |
| --- | --- |
| CGTAAGAC | -0.071 |
| ATCTGGGG | -0.267 |
| CCAGGACC | -0.137 |
| GTGTACCA | -0.241 |
| GATGTGGC | -0.247 |
| CTCGCGTA | -0.134 |
| TATATCGA | 0.174 |
| GAGCGGAC | 0.0675 |
| ATTCACTA | 0.178 |
| CAACGTGG | -0.0679 |
| ACCATTAC | 0.152 |
| CCAACCCC | -0.0129 |
| TGCACCCA | -0.164 |
| CATTGTCA | -0.0301 |
| GACTTCTC | 0.102 |
| CGAAAGCA | 0.094 |
| AGGTAGAC | -0.164 |
| ATAGGGTC | -0.0641 |
| GTATGGGA | -0.288 |
| GGATCTCA | -0.0111 |
| AATGCGGC | -0.119 |
| CGTGATAC | -0.196 |
| CCTCCCTC | -0.134 |
| GCAACTCC | 0.299 |
| ATCAGATG | -0.0902 |

| Sequence | PBM E-score |
| --- | --- |
| GAACCCAA | -0.162 |
| ATTTGACG | 0.137 |
| GGTTACAC | -0.132 |
| GAAATTGC | -0.0449 |
| CCCGAGAC | 0.0687 |
| AAACCACG | -0.0101 |
| GGGGGAAC | -0.255 |
| CATATCGC | -0.0692 |
| ACCTGCAC | -0.0264 |
| GTAGGTCA | -0.0992 |
| CGGTGGTA | -0.00793 |
| GAGGCAGC | -0.245 |
| GCCAATCA | -0.262 |
| GACATCCA | -0.123 |
| GAGTTGGA | 0.188 |
| ACAGAGAC | 0.00598 |
| AGGACTGA | -0.109 |
| AGTCATTA | -0.0493 |
| CGCTAAGC | -0.0886 |
| ACACTCGC | 0.00625 |
| GCGACTTA | -0.106 |
| ACACGCTA | -0.062 |
| CGATAAAG | 0.0523 |
| CTCCGTAC | 0.331 |
| AGTCATGA | 0.131 |

| Sequence | PBM E-score |
| --- | --- |
| ACCCAGCT | -0.205 |
| ACGCCGGG | -0.0288 |
| AGATCATG | -0.0252 |
| AGCCAGAG | 0.0568 |
| AGGTCACC | -0.21 |
| GACGTAGA | -0.31 |
| CAATGTAG | 0.0173 |
| AATAATAC | 0.202 |
| AAGTGCAC | 0.124 |
| CCTGTCTC | -0.0672 |
| GTGTACAC | -0.0363 |
| TACAGGCA | 0.085 |
| AGGGCATA | -0.104 |
| CGTGTTAC | -0.0234 |
| GTGAGTAA | 0.00333 |
| GTCCTAAA | 0.11 |
| ACCGGGGG | -0.103 |
| ACGTCGCC | -0.225 |
| GTATAATA | 0.249 |
| ATTGATTA | 0.223 |
| ATTAAATC | 0.191 |
| ACCCTTTG | -0.151 |
| AGTAGGGC | -0.198 |
| CCACCAGG | -0.274 |
| CGTTTTAC | 0.0488 |

| Sequence | PBM E-score |
| --- | --- |
| CTACGCCC | -0.276 |
| CTATAAAC | 0.268 |
| AACGGGAT | -0.0812 |
| TAGTTCGA | 0.0733 |
| TCCAACGA | -0.21 |
| ACCGAAAC | 0.132 |
| CTAGATTA | 0.189 |
| CAGTACGA | -0.0772 |
| CTTAGGGC | -0.139 |
| GCGCGAAC | -0.0862 |
| CAAAGTCG | 0.0112 |
| AGTGGTAG | -0.224 |
| ATTGTGCC | 0.0156 |
| ATGGTAGG | 0.0487 |
| CCTAAACA | -0.163 |
| ATATCCAA | 0.158 |
| TAGTCTAA | 0.042 |
| AATTGTTC | 0.239 |
| CCGAGCGC | 0.163 |
| TTCTCCAA | -0.0873 |
| CGCTAACG | -0.00974 |
| GCAAGGCC | -0.151 |
| GCAAGTAC | -0.133 |
| AATCGATC | -0.0774 |
| AAGACAAG | 0.0135 |

| Sequence | PBM E-score |
| --- | --- |
| GAAAGGGC | 0.00203 |
| CGTGGGTA | -0.245 |
| CTTGTCAC | -0.139 |
| AGCATGAC | -0.147 |
| AGATGTGG | -0.12 |
| CTGAGTCC | 0.0245 |
| CACACTGA | -0.183 |
| GTCGCCCA | -0.239 |
| ATATAGGG | -0.126 |
| AACCCGCC | -0.148 |
| GTGATGTA | 0.144 |
| GGGAGACC | -0.235 |
| GTACAGAA | 0.0825 |
| CTCACGCC | -0.154 |
| GGTTAAAA | 0.0081 |
| TGCCTTAA | -0.149 |
| CTACTACC | 0.00978 |
| ACACGTAA | 0.135 |
| AAACGACG | 0.0276 |
| GCCGGGAA | -0.172 |
| AACCTAGG | 0.00049 |
| GATCCTGA | -0.0133 |
| CCGAGGGC | -0.0115 |
| CAGCATCC | -0.0618 |
| TACCCCCA | -0.175 |

| Sequence | PBM E-score |
| --- | --- |
| AGCCTTAC | -0.205 |
| CGTGCTGA | -0.0837 |
| GAGAACTA | 0.0931 |
| CACCCAAG | -0.135 |
| TCATAGCA | -0.053 |
| CAAGATCC | -0.0536 |
| CGGGGCAG | -0.175 |
| CCGACGAG | 0.0455 |
| CTTGAATC | 0.0164 |
| CTGGAGGA | -0.248 |
| TGCGGTAA | -0.0328 |
| CACGGCCA | -0.119 |
| CCTATGCC | -0.289 |
| GGAGGGGA | -0.307 |
| GCCAACAA | 0.0741 |
| CCAGCAAG | -0.274 |
| ACCGGTCC | 0.0275 |
| CCTCTGTA | -0.21 |
| GACTAACA | 0.124 |
| AAGTCGTG | -0.00181 |
| AGCAGACC | -0.0654 |
| GAGGTAGC | -0.201 |
| CGGTCACA | -0.102 |
| ACAAAACG | 0.244 |
| AATAGTGT | 0.269 |

| Sequence | PBM E-score |
| --- | --- |
| AAGGCCTT | -0.268 |
| GCATCCAA | -0.0982 |
| CGACTACC | -0.0971 |
| ATGCGACC | 0.148 |
| ATGGTTAA | -0.00798 |
| CTTGTTAC | 0.109 |
| AGCAAGTG | -0.223 |
| CATTCGGG | -0.0375 |
| ATTGGAGG | -0.226 |
| CATGAAGG | 0.0652 |
| AATTTATA | 0.276 |
| CCGTCTCA | -0.0728 |
| GCGCGTCA | -0.00075 |
| ACTAGCTC | 0.156 |
| CCGTCGCA | -0.0269 |
| CAATACGG | -0.0587 |
| ACGCGACT | -0.145 |
| ACGAGGAA | -0.0284 |
| GCGTGGTA | -0.102 |
| GAATAAAC | 0.17 |
| ATGCCAAT | -0.105 |
| AGCGTCCC | -0.168 |
